# Data from PubChem BioAssay AID686979 (National Center for Advancing Translational Sciences (NCATS), 2013).
# In all, about 420,000 compounds went through this assay and about 50,000 (12%) were called active. Inconclusive results, whose numbers are uncertain, are shown with a selection of clear calls. Calls follow the shape of the dose curve; as a rule, active = well fitted inhibition curve with a large enough effect; inconclusive = small, poorly fitted or top-dose-only effect; inactive = flat fitted curve, though single readings scatter. No potency is given beside an inconclusive call; the fits are too rough.
# Assay: qHTS for Inhibitors of human tyrosyl-DNA phosphodiesterase 1 (TDP1): qHTS in cells in presence of CPT; also: nearly all actives have a fitted effect of over 55% in size
# Settings: chicken DT40 Tdp1-/-;hTDP1 cells + 20 nM CPT, ATP luminescence, 48 h; series mostly up to 46.2 µM
# In short: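 Cell growth measured by CellTiter-Glo luminescence after a minimum 48 h, 37 C compound exposure with 20 nM CPT in Tdp1-knockout DT40 cells stably expressing hTDP1, seeded 400/well; qHTS titration format.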
# Potency is read from the fitted curve at half-maximal effect; tags tell the direction and shape of the fitted curve.
row,Structure (SMILES),Potency
1,COc1cc(C(=O)Nc2cccc(-c3nc4cc(C)cc(C)c4o3)c2)cc(OC)c1OC,"inconclusive [inhibitor, single point]"
2,O=CNc1cc2c(cc1Br)-c1ccccc1C2O (stereo unspecified),inactive
3,CCOc1cc(Cl)c(S(=O)(=O)NCc2cccnc2)cc1Cl,"inconclusive [inhibitor, single point]"
4,O=C(c1cccs1)c1cn(CCOc2ccccc2F)c2ccccc12,"inconclusive [inhibitor, single point]"
5,COc1cccc2cc(-c3nc(Nc4cccc(C)c4)sc3C)c(=O)oc12,"inconclusive [inhibitor, single point]"
6,COCCn1c(=O)c(CCc2ccccc2)nc2cnc(N3CCN(C)CC3)nc21,inactive
7,COc1cc(C2c3c(-c4ccccc4O)n[nH]c3C(=O)N2CCO)ccc1OCc1ccccc1 (stereo unspecified),inactive
8,COc1ccc(NC(=O)Nc2cccc3c2O[C@H](CN(C)S(=O)(=O)c2cccs2)[C@@H](C)CN([C@H](C)CO)C3=O)cc1,"inconclusive [inhibitor, single point]"
9,Cc1c(C(=O)NCc2cccnc2)oc2ccccc12,inactive
10,CC(=O)Nc1ccc(OCC(O)CN2C(C)(C)CC(O)CC2(C)C)cc1 (stereo unspecified),inactive
11,C/C(=N/OCC(=O)NCCCCCCNC(=O)CO/N=C(/C)c1cccs1)c1cccs1,"inconclusive [inhibitor, single point]"
12,COc1cccc(CNC(=O)c2ccc3nc(-c4ccc(F)cc4)c(-c4ccc(F)cc4)nc3c2)c1,active: 20.6 µM
13,CCN(CC)C(=O)CSc1nc2ccccc2c(=O)n1OC(C)C,"inconclusive [inhibitor, full curve]"
14,COc1ccc([C@H]2CC(=O)C=C(c3ccc(OC)nc3)C2)cc1,"inconclusive [inhibitor, single point]"
15,CN(C)c1ccc(-c2nc3cc(N)ccc3o2)cc1,inactive
16,Brc1ccc2[nH]c3c(NCc4ccccn4)ncnc3c2c1,"inconclusive [inhibitor, single point]"
17,O=C(C1CCN(S(=O)(=O)c2ccccc2)CC1)N1CCN(Cc2ccc3c(c2)OCO3)CC1,"inconclusive [inhibitor, single point]"
18,CC(C)c1ccc(S(=O)(=O)c2nnn3c2nc(N2CCN(C)CC2)c2sccc23)cc1,active: 16.4 µM
19,COc1cccc(-c2nc3cc4c(cc3cc2CN(C(=O)c2cc(C)nn2C)C2CC2)CCC4)c1OC,active: 4.11 µM
20,CC(C)OCCCN(C)C1CCN(S(=O)(=O)c2ccc(-c3cc(C(F)(F)F)no3)s2)CC1,"inconclusive [inhibitor, single point]"
21,CN(C)C(=O)c1ccc(-c2ccc3ncnc(N(C)C)c3c2)cc1,"inconclusive [inhibitor, partial curve]"
22,O=C(NCC1CCCO1)c1cc(-c2ccc(F)cc2)no1 (stereo unspecified),"inconclusive [inhibitor, single point]"
23,Cn1ccc2c(-c3cncc4ccccc34)cc3c(c21)C1CCC3C1 (stereo unspecified),"inconclusive [inhibitor, single point]"

row,Structure (SMILES),Potency
1,COc1cccc(/C=C/C(=O)OCC(=O)NCc2ccc(Cl)cc2)c1,"inconclusive [inhibitor, single point]"
2,Cc1ccsc1C(=O)C1CCCN(Cc2cn(C)nc2-c2ccccc2)C1 (stereo unspecified),"inconclusive [inhibitor, single point]"
3,CN(c1ccccc1)S(=O)(=O)c1cccc(NC(=O)c2ccncc2)c1,active: 6.51 µM
4,Cc1nc2ccc(NC(=O)N(C)c3ccccc3)cc2s1,inactive
5,CC(C)Oc1ccc(S(=O)(=O)N2CCCCC2)cc1NC(=O)CN1C(=O)NC(C)(c2ccccc2)C1=O (stereo unspecified),"inconclusive [inhibitor, single point]"
6,O=C(c1ccco1)N1CCC2CC1c1c(Cl)cccc12 (stereo unspecified),"inconclusive [inhibitor, single point]"
7,CCCCn1c(CCl)nc2cc(S(=O)(=O)N3CCOCC3)ccc21,active: 4.61 µM
8,Cc1cccc(NC(=O)c2sc(Cl)nc2-c2ccccc2)c1,"inconclusive [inhibitor, single point]"
9,CC(C)CN(C[C@@H](O)[C@H](Cc1ccccc1)NC(=O)O[C@H]1CO[C@H]2OCC[C@H]21)S(=O)(=O)c1ccc(N)cc1,inactive
10,COc1ccc(C2CC(c3ccccc3)=NN2C(=O)COC(=O)/C=C/c2ccc(O)c(OC)c2)cc1 (stereo unspecified),"inconclusive [inhibitor, single point]"
11,COC(=O)/C(C#N)=C\c1c(OC)[nH]c2ccccc12,"inconclusive [inhibitor, single point]"
12,O=C(Cn1c(NCCCO)nc2ccccc21)c1ccc(Cl)cc1,"inconclusive [inhibitor, partial curve, poor fit]"
13,CC(C)CN1CCN(Cc2cccn2-c2ccccn2)CC1CCO (stereo unspecified),inactive
14,Cc1ccc(CNC(=O)COCc2cc(-c3cccs3)on2)cc1,"inconclusive [inhibitor, partial curve]"
15,CCOc1ccccc1N1CC(C(=O)Nc2ccc(C(=O)O)cc2)CC1=O (stereo unspecified),inactive
16,COc1ccc(C(=O)Nc2nc3nc(C)c(Cc4ccccc4)c(=O)n3[nH]2)cc1OC,inactive
17,COc1ccc(CCNC(=O)c2ccc(C)s2)cc1OC,inactive
18,COc1ccc(C(O)P(=O)(OCC(C)C)OCC(C)C)c(OC)c1 (stereo unspecified),inactive
19,CC(C)(C)OC(=O)N1CCC(Cc2cc(-c3ccccc3)no2)(C(=O)O)CC1,inactive
20,CC(C)CNc1nc(Oc2ccc(=O)n(C)n2)nc(N2CCOCC2)n1,inactive
21,Cc1cc(OCC(=O)N2CCN(c3ccccn3)CC2)cc(C)c1Br,"inconclusive [inhibitor, single point]"
22,COC(=O)c1ccccc1NC(=O)N1CCN(c2ccc(F)cc2)CC1,"inconclusive [inhibitor, partial curve]"
23,O=C(Nc1cccc(F)c1)C1CCCN1S(=O)(=O)c1cccc2cccnc12 (stereo unspecified),active: 18.4 µM
